# According to PubChem BioAssay AID488969 (Vanderbilt High Throughput Screening Facility, 2010):
# Over roughly 110,000 compounds, “z-score” has its median near -0.1; the highest 2% begin near 2. The list shows a part of the results. The source made the active and inactive calls.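 The calls were made as follows: active = z-score in the third read window above 3 or below -3; inactive = the rest.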
# Target: Metabotropic glutamate receptor 8 (Rattus norvegicus) (UniProt P70579)
# Test: mGluR8 Gi/Go-coupled signaling modulation – cell-based, rat, thallium flux, HTS, primary screen (AID 488969)
# Settings: HEK293 rat mGluR8, GIRK (G protein-gated inwardly rectifying potassium channel) thallium flux, FluoZin2; at 10 µM; stronger effect = higher value; submaximal glutamate (EC20) added with thallium
# UniProt P70579, sequence (P70579 whole entry, looked up): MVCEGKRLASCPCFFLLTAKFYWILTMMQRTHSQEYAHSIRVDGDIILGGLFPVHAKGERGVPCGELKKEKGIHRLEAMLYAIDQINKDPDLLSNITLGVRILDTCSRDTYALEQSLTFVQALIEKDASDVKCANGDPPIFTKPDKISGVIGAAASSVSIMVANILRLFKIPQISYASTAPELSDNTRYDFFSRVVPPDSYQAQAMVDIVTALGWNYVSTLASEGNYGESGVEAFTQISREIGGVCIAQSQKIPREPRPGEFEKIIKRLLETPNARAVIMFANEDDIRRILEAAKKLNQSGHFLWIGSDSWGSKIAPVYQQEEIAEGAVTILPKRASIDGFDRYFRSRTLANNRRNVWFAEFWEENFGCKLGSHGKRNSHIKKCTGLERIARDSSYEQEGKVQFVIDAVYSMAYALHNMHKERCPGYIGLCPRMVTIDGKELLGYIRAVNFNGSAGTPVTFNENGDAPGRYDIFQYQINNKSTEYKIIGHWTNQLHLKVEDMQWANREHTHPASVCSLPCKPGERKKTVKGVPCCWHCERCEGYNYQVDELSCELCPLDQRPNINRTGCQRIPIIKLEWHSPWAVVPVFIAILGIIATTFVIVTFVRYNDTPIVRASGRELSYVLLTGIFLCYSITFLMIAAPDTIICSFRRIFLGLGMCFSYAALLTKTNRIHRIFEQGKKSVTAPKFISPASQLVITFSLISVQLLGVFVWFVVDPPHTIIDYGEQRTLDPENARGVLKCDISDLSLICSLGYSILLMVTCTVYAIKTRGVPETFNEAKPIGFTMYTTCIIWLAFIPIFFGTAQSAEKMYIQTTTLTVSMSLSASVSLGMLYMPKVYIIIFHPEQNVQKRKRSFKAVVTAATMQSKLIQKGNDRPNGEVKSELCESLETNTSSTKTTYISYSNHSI
row,SMILES,z-score
1,CC(C)(C)c1csc(NC(=O)c2ccc(Cl)s2)n1,-0.708
2,Cc1ccccc1OCC(=O)N/N=C/c1ccc(Sc2nc3ccccc3s2)o1,-0.0814
3,Cc1cc(C)n(Cc2ccc(C(=O)NCc3ccco3)o2)n1,-0.366
4,O=C(Nc1ccccc1N1CCCC1)c1ccc2c(c1)OCO2,-0.236
5,Nc1nc2nc(-c3ccccc3)cc(=O)n2[nH]1,0.205
6,O=C1Nc2ccccc2C12OCC(COc1ccc(Cl)cc1)O2 (configuration not stated),0.176
7,O=C(O)Cc1ccc(-c2ccccc2-c2ccccc2)cc1,0.095
8,CCC/C(C)=N/NC(=O)c1ccccc1O,-0.182
9,N#CC(C(=O)NCc1ccco1)c1nc2ccccc2nc1N1CCOCC1 (configuration not stated),0.555
10,O=C(CCN1C(=O)/C(=C\c2ccccc2Cl)SC1=S)N1CCN(c2ccccc2)CC1,0.479
11,Cc1cc(C(=O)Nc2sc(C)c(-c3ccc(F)cc3)c2C(N)=O)no1,0.0342
12,COc1cccc(-c2cc(C(=O)NCC3CCCO3)c3ccccc3n2)c1 (configuration not stated),0.539
13,Cn1cccc1Cc1nnc(SCC(=O)NC2CCCC2)n1CCc1ccccc1,-0.147
14,COc1ccc2c(c1)C1=NN(/C(C)=C/C(C)=O)C(c3ccc(F)cc3)C1CC2 (configuration not stated),-0.895
15,CC(C)(C)c1cc(NC(=O)c2cccc(S(=O)(=O)N3CCOCC3)c2)no1,-0.0985
16,CCc1nnc(NC(=O)CSc2nnc(-c3ccccc3OC)n2-c2ccc(C)cc2)s1,0.391
17,Cn1c(COc2ccccc2)nnc1SCC(=O)c1cccc([N+](=O)[O-])c1,0.0138
18,CCc1cccc(C)c1NC(=O)CSc1nnc(-c2cc3cc(Br)ccc3o2)n1CC,-0.188
19,CCOC(=O)N1CCN(C(=O)CCCn2c(=S)[nH]c3ccc(Br)cc3c2=O)CC1,1.24
20,O=C(c1ccco1)N1CCN(C(=O)c2cccs2)CC1,-0.0296
21,COC(=O)C12CCC3(SCCS3)C(C(=O)OC)(CCC13SCCS3)C2,-0.3
22,Cc1onc(-c2ccccc2Cl)c1C(N)=O,-0.305
23,Cc1cccnc1NC1(C(F)(F)F)N=C(c2ccccc2)NC1=O (configuration not stated),-0.123

row,SMILES,z-score
1,CNC(=O)c1cc2cccc(OC)c2oc1=O,-0.116
2,Oc1c(C(c2ccccc2)N2CCN(Cc3ccccc3)CC2)sc2ncnn12 (configuration not stated),-0.0198
3,CSC1=N/C(=C\c2cccnc2)C(=O)N1c1ccccc1,-0.343
4,Cc1ccc(C)c(-c2cc(C(=O)Nc3nccs3)c3ccccc3n2)c1,0.141
5,Cc1c(NS(=O)(=O)c2ccc(NC3CCCC3)c([N+](=O)[O-])c2)c(=O)n(-c2ccccc2)n1C,-0.337
6,Cn1c(Cc2ccccc2)nnc1SCC(=O)NC1CCCCC1,0.0891
7,Nc1nc(NCC2CCCO2)nc(Nc2ccc(F)cc2)c1[N+](=O)[O-] (configuration not stated),-0.352
8,CC1CCc2c(sc3nc4n(c(=O)c23)CCS4)C1 (configuration not stated),-0.0157
9,Cc1cc(C(=O)N/N=C/c2cc(Br)ccc2OC(=O)c2ccc(Br)cc2)n[nH]1,-0.0963
10,CC(NC(=O)c1ccco1)c1cccc2ccccc12 (configuration not stated),-0.644
11,COc1ccc(CCNC(=O)C2CCCN2C(=O)Nc2cccc(C(C)=O)c2)cc1OC (configuration not stated),-0.66
12,Cc1cccn2c(=O)c3cc(C(=O)N4c5ccccc5CC4C)n(C)c3nc12 (configuration not stated),-0.424
13,CCOC(=O)/C(C(N)=NCCCO)=C(/O)c1ccccc1,-0.146
14,COc1cc(=O)[nH]c(=O)n1C(=O)Cc1ccccc1,0.332
15,CCOc1ccc(Cc2c(Cl)nc(N)nc2Cl)cc1,-0.106
16,Cc1ccc2c(C(=O)CN3CCOCC3)c(C)[nH]c2c1,0.335
17,Cc1ccc(N(C(=O)c2ccncc2)C2C=CS(=O)(=O)C2)cc1 (configuration not stated),-0.299
18,Cc1[nH]nc2ncc(C(=O)c3cc(Cl)cc(Cl)c3O)cc12,-0.034
19,O=C(NN=C1CCC(c2ccccc2)CC1)c1ccccc1-n1cccc1 (configuration not stated),-0.268
20,CC(C)(C)c1ccc(C(=O)NC(Cc2ccccc2)C(=O)O)cc1 (configuration not stated),-0.397
21,CC1CC(C)CN(Cc2nc(N)nc(Nc3ccc4ccccc4c3)n2)C1 (configuration not stated),active: 3.66
22,COc1ccc(C(=O)c2c[nH]c(C(=O)NCc3cccnc3)c2)cc1,-0.16
23,Cc1ccc(C(=O)Nc2ccc3nccnc3c2)cc1,0.166

row,SMILES,z-score
1,CN(C(=O)c1ccco1)c1nc(CC(=O)Nc2ccccc2)cs1,-0.0376
2,O=C(Nc1ccccc1)N(CCc1nc2ccccc2[nH]1)C1CCCC1,-0.56
3,Cn1ncc(Cl)c1C(=O)NCc1ccc(Cl)cc1,-0.0775
4,O=c1oc2ccccc2c2c1C(c1ccc(Cl)cc1)Nc1ccc3ccccc3c1-2 (configuration not stated),-0.402
5,NC(=O)C1CCN(C(=O)CSc2nc3ccccc3[nH]2)CC1,-0.104
6,Cc1nc(C)n(CC(O)COc2ccc3cc(Br)ccc3c2)n1 (configuration not stated),0.0501
7,O=C(Cn1cnc2c(nnn2Cc2ccc(F)cc2)c1=O)NCC1CCCO1 (configuration not stated),0.169
8,CC(C)C(CC(=O)NCc1ccco1)c1ccco1 (configuration not stated),-0.217
9,O=C(Cc1ccccc1)N/N=C/c1ccccc1OCc1ccc(Cl)cc1,-0.118
10,Cc1cc(NC(=O)c2ccc(NC(=O)CC(C)C)cc2)no1,-0.175
11,Cn1c(=O)c2c(nc(NCCO)n2C)n(C)c1=O,0.204
12,COC(=O)c1c(NC(=O)CC2NCCNC2=O)sc2c1CCCC2 (configuration not stated),-0.458
13,O=C1C2C3c4ccccc4C(c4ccccc43)C2C(=O)N1c1cccc2cccnc12 (configuration not stated),-0.241
14,CC1(C)Cc2cccc(OCC(=O)Nc3ccccc3N3CCOCC3)c2O1,-1.79
15,CCCNC(=O)CN(C)C(=O)c1n[nH]c2ccccc12,-0.0168
16,O=C(Nc1cccc(F)c1)c1ccc(S(=O)(=O)N2CCCC2)cc1,0.102
17,CCOC(=O)c1sc(/N=C/c2ccc(O)cc2O)cc1C,-0.116
18,Cc1ccc(NC(=O)c2ccc(CN3CCc4ccccc4C3)cc2)cc1,0.0157
19,O=C(NCc1cccnc1)c1cc(Cl)ccc1[N+](=O)[O-],-0.256
20,CCOc1cc(NC(=S)NCC2CCCO2)c(OCC)cc1NC(=O)c1ccccc1 (configuration not stated),-0.282
21,CCC1(C)Cc2nc3[nH]c(=S)n(-c4ccccc4)c(=O)c3cc2CO1 (configuration not stated),-0.0711
22,O=C(Cn1ccc2ccccc2c1=O)N1CCN(Cc2ccc3c(c2)OCO3)CC1,0.477
23,CCC(=S)/C=C1\Sc2ccccc2N1CCCS(=O)(=O)O,0.543

row,SMILES,z-score
1,O=C1CC(c2ccco2)Cc2nc(Nc3ccc(F)cc3)ncc21 (configuration not stated),-0.666
2,Cc1ccc(NC(=O)CN(Cc2ccccc2)S(C)(=O)=O)cc1C,-0.124
3,O=C(CNCc1ccc(Cl)cc1)NCc1ccco1,-0.217
4,O=C(CCNS(=O)(=O)c1ccc(Br)s1)N1CCCCC1,-0.315
5,CC(=O)c1c(C)oc2ccc(N(C(=O)C3CCCCC3)S(=O)(=O)c3cc([N+](=O)[O-])ccc3C)cc12,0.0278
6,Cc1cc(C)nc(SCCC(=O)Nc2ccccc2C)n1,0.236
7,CC(=O)Nc1ccc2c(c1)CN(c1cc(C)ccc1C)CO2,-0.238
8,c1ccc(OCc2nnnn2-c2ccccc2)cc1,-0.0761
9,Cn1nc(C(F)(F)F)cc1C(=O)NC1CCCCCC1,0.13
10,O=C(CSc1nnnn1-c1ccc(Cl)cc1)NC(=O)Nc1ccc2c(c1)OCCO2,1.46
11,Cc1ccc(/C=C2\SC(=S)N(CCCC(=O)Nc3nccs3)C2=O)cc1,0.213
12,Cc1cccc(NC(=O)CSc2nc3c(c(=O)[nH]2)CCCC3)c1C,-0.487
13,N=c1c2c(n(Cc3ccc(Br)cc3)c3c1CCC3)CCCC2,0.0858
14,CCC1CCCCN1S(=O)(=O)c1ccc2c(c1)CCN2C(=O)C1CCC1 (configuration not stated),-0.458
15,CCCCC(=O)N/N=C/c1ccc(Sc2cccc3cccnc23)o1,0.318
16,COc1cccc(/C=N/n2c(C)nc3ccccc3c2=O)c1O,-0.294
17,CNc1c(C(=O)O)ccc2c1C(=O)c1ccccc1C2=O,-0.963
18,COc1cc(CCN2C(=O)c3cccc4cccc(c34)C2=O)c(S(=O)(=O)NCCO)cc1OC,0.0309
19,CCOC(=O)C1CCN(C(=O)CN(c2ccc(Cl)c(C(F)(F)F)c2)S(C)(=O)=O)CC1,active: -4.72
20,O=C(NCc1cccnc1)Nc1ccccc1F,-0.0669
21,COc1ccc(OCC(=O)Nc2ccc3c(c2)nc(CN2CCCC2)n3C)cc1,0.0515
22,Nc1nonc1-c1nc2ccccc2[nH]1,0.315
23,CCCn1c(N)c(C(=O)CSc2nnc(-c3cccnc3)n2-c2ccc(C)cc2C)c(=O)[nH]c1=O,-0.424

row,SMILES,z-score
1,Cc1ccc(-c2nn(CC(=O)NC(C)c3ccccc3)c(=O)c3ccccc23)cc1 (configuration not stated),-0.853
2,CCNC(=O)NC(=O)C(C)OC(=O)c1cc(S(=O)(=O)N2CCCCCC2)ccc1OC (configuration not stated),-0.708
3,CCOC(=O)c1cnc(Nc2nc3ccccc3o2)nc1CSc1ncccn1,0.774
4,COc1ccccc1CN1CCCC(C(=O)N(C)Cc2ccccc2)C1 (configuration not stated),0.513
5,O=C(c1c[nH]c2ccc(S(=O)(=O)N3CCOCC3)cc2c1=O)N1CCN(c2ccccn2)CC1,-0.213
6,Cc1ccc(C(=O)Nc2nnc(-c3ccco3)o2)cc1,0.435
7,CC(C)(C)c1ccc(NC(=S)NCc2cccs2)cc1,-0.232
8,CCOc1ccccc1N(C(=O)Nc1ccc(Cl)cc1)C1=NC(C)CS1 (configuration not stated),-0.304
9,O=C(N/N=C/c1ccccn1)c1cc(-c2cccc3ccccc23)n[nH]1,-0.836
10,Clc1ccc(C(c2nnnn2CCc2ccccc2)N2CCSCC2)cc1 (configuration not stated),0.0285
11,O=C(CCC1CCCC1)N1CCN(C(=O)c2ccco2)CC1,2.43
12,Cc1ccccc1CSCC(=O)c1c(N)n(C)c(=O)n(C)c1=O,-0.253
13,COc1cccc(C2C(C(N)=O)=C(C)Nc3nc(-c4cccc(Cl)c4)nn32)c1 (configuration not stated),-0.342
14,O=C(Cc1ccccc1)Nc1ccc(N2CCN(Cc3ccccc3F)CC2)cc1,0.34
15,CC(C)OC(=O)CCCNc1ccc([N+](=O)[O-])cc1[N+](=O)[O-],-0.2
16,CCCNC(=O)Cn1c(=O)oc2ccccc21,-0.131
17,CCCCNC(=O)Cc1c(O)c2ccccc2[nH]c1=O,0.214
18,CSc1c2c(nc3ncnn13)CCC2,-0.202
19,CC(=O)c1c(C)[nH]c(C(=O)N2c3ccccc3CC2C)c1C (configuration not stated),-0.0545
20,Cc1ccc(CNC(=O)c2cnc(-c3ccccn3)nc2C(F)(F)F)cc1,-0.17
